The text below walks through data of the supplement of paper PMC8047034.

Structures can show the parent of a compound that is named as a salt. The list shows a part of the results. Repeats are few or missing, and single values can be far off.

The subject of one assay is OVCAR4. Nature of the assay: log2 surviving fraction (library drug vs vehicle, or drug + carboplatin vs carboplatin alone; relative to plate median); ovarian cancer lines: OVCAR4 is platinum-sensitive and Ov4Carbo platinum-resistant; higher = more cell survival. Conditions: library drug concentration 10 µM, 7 days.
The subject of a further assay is Ov4Carbo. The description is as above. Conditions: library drug concentration 10 µM, 7 days.

Consider `C[C@@H]1CN(c2c(F)c(N)c3c(=O)c(C(=O)O)cn(C4CC4)c3c2F)C[C@H](C)N1` [Sparfloxacin], for which the log2 surviving fraction in the assay on OVCAR4 (carboplatin co-treatment 0 µM) is 0.274; in the assay on OVCAR4 (carboplatin co-treatment 5 µM), 0.147; with Ov4Carbo (carboplatin co-treatment 0 µM) it was 0.67; in the assay on Ov4Carbo (carboplatin co-treatment 5 µM), 0.325.
On the same counts, the results for `Nc1nc(N)nc(NC2CC2)n1` [Cyromazine] are -0.718, -0.0759, -0.69 and 0.707.
Consider `CCCc1nn(C)c2c(=O)[nH]c(-c3cc(S(=O)(=O)N4CCN(C)CC4)ccc3OCC)nc12` [Sildenafil citrate], for which the log2 surviving fraction is 0.181 in the assay on OVCAR4 (carboplatin co-treatment 0 µM), 1.24 in the assay on OVCAR4 (carboplatin co-treatment 5 µM), 1.43 with Ov4Carbo (carboplatin co-treatment 0 µM) and 0.307 in the assay with Ov4Carbo (carboplatin co-treatment 5 µM).
Regarding `Cc1ccc(S(=O)(=O)NC(=O)NN2CC3CCCC3C2)cc1` (configuration not stated) [Gliclazide (Diamicron)], the log2 surviving fraction in the assay on OVCAR4 (carboplatin co-treatment 0 µM) is -0.282; in the assay on OVCAR4 (carboplatin co-treatment 5 µM) it was 0.0783; in the assay with Ov4Carbo (carboplatin co-treatment 0 µM), 0.768; in the assay on Ov4Carbo (carboplatin co-treatment 5 µM), 0.573.
For `N[C@@H]1CN(c2c(F)cc3c(=O)c(C(=O)O)cn([C@@H]4C[C@@H]4F)c3c2Cl)CC12CC2` [Sitafloxacin hydrate] the same measures were 0.116, 0.724, 1.03 and 0.518.
For `CCN(CC)CC#CCOC(=O)C(O)(c1ccccc1)C1CCCCC1` (configuration not stated) [Oxybutynin (Ditropan)], the log2 surviving fraction is 0.519 in the assay with OVCAR4 (carboplatin co-treatment 0 µM), -0.36 with OVCAR4 (carboplatin co-treatment 5 µM), -0.553 with Ov4Carbo (carboplatin co-treatment 0 µM) and -0.342 in the assay on Ov4Carbo (carboplatin co-treatment 5 µM).
For `C[C@@H](O)[C@H]1C(=O)N2C(C(=O)O)=C(S[C@@H]3CN[C@H](CNS(N)(=O)=O)C3)[C@H](C)[C@H]12` [Doripenem Hydrate] the same measures were -0.186, 1.03, 0.84 and 0.154.
For `CC(C)(O)c1ccccc1CC[C@@H](SCC1(CC(=O)O)CC1)c1cccc(/C=C/c2ccc3ccc(Cl)cc3n2)c1` [Montelukast Sodium] the same measures were 0.403, 0.486, 0.272 and 0.335.
`CCCN1CCCC[C@H]1C(=O)Nc1c(C)cccc1C` [Ropivacaine HCl]: the log2 surviving fraction in the assay on OVCAR4 (carboplatin co-treatment 0 µM) was 0.226; in the assay with OVCAR4 (carboplatin co-treatment 5 µM), 0.646; with Ov4Carbo (carboplatin co-treatment 0 µM), -0.517; in the assay on Ov4Carbo (carboplatin co-treatment 5 µM) it was -0.748.
On to `C#C[C@]1(O)CC[C@H]2[C@@H]3CCc4cc(O)ccc4[C@H]3CC[C@@]21C` [Ethinyl Estradiol], for which the log2 surviving fraction in the assay with OVCAR4 (carboplatin co-treatment 0 µM) is -1.53; with OVCAR4 (carboplatin co-treatment 5 µM), -2.52; with Ov4Carbo (carboplatin co-treatment 0 µM), -0.934; with Ov4Carbo (carboplatin co-treatment 5 µM), -2.04.
For `COC(=O)C1=CO[C@@H](O)[C@@H]2C(CO)=CC[C@H]12` [Genipin] the same measures were 0.816, 1.58, 1.48 and 1.03.
For the compound `Cc1cccc(CN2CCN(C(c3ccccc3)c3ccc(Cl)cc3)CC2)c1` (configuration not stated) [Meclizine 2HCl], the log2 surviving fraction with OVCAR4 (carboplatin co-treatment 0 µM) is -0.462; in the assay on OVCAR4 (carboplatin co-treatment 5 µM), 1.38; in the assay with Ov4Carbo (carboplatin co-treatment 0 µM) it was 0.22; with Ov4Carbo (carboplatin co-treatment 5 µM) it was 1.11.
For `S=c1[nH]cnc2nc[nH]c12` [Mercaptopurine] the same measures were -0.961, -0.829, -2.76 and -3.48.
For `COc1c2ccoc2cc2oc(=O)ccc12` [Bergapten] the same measures were 1.18, 0.647, 0.181 and 0.848.
For `CN(C)CCC[C@@]1(c2ccc(F)cc2)OCc2cc(C#N)ccc21` [Escitalopram oxalate] the same measures were 0.151, 0.0872, -1.11 and -1.35.
As to `CN1[C@@H]2CC[C@H]1C[C@@H](OC(=O)[C@H](CO)c1ccccc1)C2` [Hyoscyamine (Daturine)], the log2 surviving fraction with OVCAR4 (carboplatin co-treatment 0 µM) amounted to 0.328; with OVCAR4 (carboplatin co-treatment 5 µM), 1.25; in the assay with Ov4Carbo (carboplatin co-treatment 0 µM) it was 0.171; with Ov4Carbo (carboplatin co-treatment 5 µM), 0.748.
On the same counts, the results for `CCOC(=O)n1ccn(C)c1=S` [Carbimazole] are 0.339, 0.374, 0.157 and 0.392.
For `COc1cc(NC(C)CCCN)c2ncccc2c1` (configuration not stated) [Primaquine Diphosphate] the same measures were 0.103, 0.728, 0.0666 and -0.0887.
On the same counts, the results for `C=C(c1ccc(C(=O)O)cc1)c1cc2c(cc1C)C(C)(C)CCC2(C)C` [Bexarotene] are -0.741, -0.0143, -0.532 and -0.295.
Take `CCOC(=O)[C@H](CCc1ccccc1)N[C@@H](C)C(=O)N1[C@H](C(=O)O)C[C@@H]2CCC[C@@H]21` [Ramipril (Altace)]: the log2 surviving fraction in the assay on OVCAR4 (carboplatin co-treatment 0 µM) was -0.551; in the assay on OVCAR4 (carboplatin co-treatment 5 µM), -1.81; with Ov4Carbo (carboplatin co-treatment 0 µM) it was 0.52; in the assay with Ov4Carbo (carboplatin co-treatment 5 µM) it was 0.348.
On the same counts, the results for `COC(=O)C1=C(C#N)NC(C)=C(C(=O)OC(C)C)C1c1cccc([N+](=O)[O-])c1` (configuration not stated) [Nilvadipine (ARC029)] are -1.97, -1.14, -1.87 and -1.48.
`O=C(C[S+]([O-])Cc1ccco1)NC/C=C\COc1cc(CN2CCCCC2)ccn1` (configuration not stated) [Lafutidine]: the log2 surviving fraction was 1.64 in the assay with OVCAR4 (carboplatin co-treatment 0 µM), -0.989 with OVCAR4 (carboplatin co-treatment 5 µM), 1.68 in the assay on Ov4Carbo (carboplatin co-treatment 0 µM) and 0.903 with Ov4Carbo (carboplatin co-treatment 5 µM).
On the same counts, the results for `CC1(C)[C@H](C(=O)O)N2C(=O)C[C@H]2S1(=O)=O` [Sulbactam sodium (Unasyn)] are 0.00957, -0.343, 0.593 and 0.488.
For `CC[C@H](C)C(=O)O[C@H]1CCC=C2C=C[C@H](C)[C@H](CC[C@@H]3C[C@@H](O)CC(=O)O3)[C@H]21` [Mevastatin] the same measures were -1.47, -1.16, -2.15 and -2.09.
For `CC(CN(C)C)CN1c2ccccc2CCc2ccccc21` (configuration not stated) [Trimipramine Maleate] the same measures were -1.41, 1.02, -1.99 and -1.93.
For the compound `N#C[C@@H]1CCCN1C(=O)CNC12CC3CC(CC(O)(C3)C1)C2` [Vildagliptin (LAF-237)], the log2 surviving fraction came to 0.841 in the assay with OVCAR4 (carboplatin co-treatment 0 µM), 0.123 with OVCAR4 (carboplatin co-treatment 5 µM), 0.834 in the assay with Ov4Carbo (carboplatin co-treatment 0 µM) and 0.158 in the assay with Ov4Carbo (carboplatin co-treatment 5 µM).
In the case of `Clc1ccc(C(Cn2ccnc2)OCc2csc3c(Cl)cccc23)c(Cl)c1` (configuration not stated) [Sertaconazole nitrate], the log2 surviving fraction is -1.88 in the assay with OVCAR4 (carboplatin co-treatment 0 µM), -2.37 in the assay on OVCAR4 (carboplatin co-treatment 5 µM), -1.22 with Ov4Carbo (carboplatin co-treatment 0 µM) and -1.2 in the assay on Ov4Carbo (carboplatin co-treatment 5 µM).
On the same counts, the results for `CCCc1cc(C(N)=S)ccn1` [Protionamide (Prothionamide)] are 0.322, 1.1, 0.255 and 0.169.
